Several values for one entry are separate records, joined by “and”; a condition that tells them apart may be missing. Equal entries are not always repeated. In all, about 240,000 compounds went through this assay and about 20 (0.008%) were called active. Inconclusive results, whose numbers are uncertain, are shown with a selection of clear calls. Calls come from the whole dose curve; as a rule, active = well fitted inhibition curve with a large enough effect; inconclusive = small, poorly fitted or top-dose-only effect, or effect the other way; inactive = flat fitted curve, though single readings scatter. A potency beside an inconclusive call is a rough fit, not a confirmed value.
Target: Alpha-galactosidase A (Homo sapiens) (UniProt P06280)
UniProt P06280, sequence (P06280 whole entry, looked up): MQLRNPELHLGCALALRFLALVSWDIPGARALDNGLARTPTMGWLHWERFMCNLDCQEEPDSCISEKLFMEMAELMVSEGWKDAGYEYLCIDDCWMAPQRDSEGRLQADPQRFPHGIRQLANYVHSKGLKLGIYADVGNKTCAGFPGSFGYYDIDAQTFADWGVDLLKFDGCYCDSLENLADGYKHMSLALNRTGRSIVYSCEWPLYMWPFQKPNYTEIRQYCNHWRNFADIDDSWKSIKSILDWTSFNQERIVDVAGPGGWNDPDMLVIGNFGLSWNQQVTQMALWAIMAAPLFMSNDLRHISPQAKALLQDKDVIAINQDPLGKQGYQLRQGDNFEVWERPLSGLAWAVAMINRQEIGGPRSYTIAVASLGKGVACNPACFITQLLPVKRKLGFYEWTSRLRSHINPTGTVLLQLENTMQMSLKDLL
Assay: qHTS Assay for Inhibitors and Activators of Human alpha-Galactosidase From Spleen Homogenate;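 for activity change, negative = inhibition: 0% = enzyme with vehicle and -100% = no enzyme basal signal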
Settings: 4MU-alpha-Gal fluorescence, 40 min; activity change, negative = inhibition: at 80 µM (top of the series)
In short: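 qHTS titration in buffer at pH 5.0. Alpha-galactosidase activity in spleen homogenate was measured via 4-methylumbelliferone release from 1 mM fluorogenic substrate after 40 min at 37C and a pH 10 stop. AC50 came from Hill fits of control-normalized data.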
Potency is the fitted concentration of half-maximal effect; tags give direction and shape of the fitted curve.

Structure (SMILES) | Potency | activity change, negative = inhibition
CCOc1cccc(-c2nnc3n2N=C(c2cc(OC)ccc2OC)CS3)c1 | inconclusive: 50.1 µM [inhibitor, single point] | –
COc1cc2ncnc(Nc3cccc(Cl)c3)c2cc1OC | inconclusive: 44.7 µM [activator, single point] | –
COc1ccc(NC(=O)CCC(=O)N/N=C/c2cn(C)nc2C)cc1 | inconclusive: 35.5 µM [inhibitor, single point] | –
CC(C)(C)CC(=O)Nc1cccc(-c2cn3cccnc3n2)c1 | inconclusive: 28.2 µM [activator, single point] | –
Cc1c(/C(O)=C2/C(=O)C(=O)N(CCN3CCOCC3)C2c2ccccn2)cnn1-c1ccccc1 (stereo not given) | inactive | –
COc1cc(C(=O)Nc2cc(-c3cn4cccnc4n3)ccc2C)cc(OC)c1OC | inconclusive: 35.5 µM [activator, partial curve] | –
COCCn1c(C)cc(C2=NNC(=Nc3ccccc3)SC2)c1C | inactive | –
O=C(N/N=C/c1ccc2c(c1)OCO2)c1cc2ccccc2o1 | inconclusive: 35.5 µM [activator, single point] | –
O=C(O)c1ccc(CCN2CCN(CC=Cc3ccc(Cl)cc3)CC2)cc1 | inactive | –
CC(=O)Nc1ccc(Nc2nc(-c3ccccc3)nc3ccccc23)cc1 | inactive | –
CCOC(=O)C1CCN(S(=O)(=O)c2cccc(-c3cn4cccnc4n3)c2)CC1 | inconclusive: 35.5 µM [activator, partial curve] | –
O=C(Nc1ccccc1Sc1ccccc1)c1ccc(F)cc1 | inconclusive: 50.1 µM [inhibitor, single point] | –
CC1(C)S[C@@H]2[C@H](NC(=O)[C@H](N)c3ccccc3)C(=O)N2[C@H]1C(=O)O | inconclusive: 50.1 µM [activator, single point] | –
CCCCC[n+]1cccc2c3ccccc3ccc21 | inconclusive: 25.1 µM [activator, partial curve] | –
Clc1ccc(Cn2nnc(-c3ccccc3)n2)cc1 | inactive | –
COC(=O)c1cc(C#N)c(SCc2ccccc2)nc1C | inactive | –
COc1cc(C)c(C(C)C)cc1S(=O)(=O)N1CCN(C)CC1 | inactive | –
CCOC(=O)c1cc2c(=O)n3cccc(C)c3nc2n(CCOC)c1=NC(C)=O | inconclusive: 28.2 µM [activator, partial curve] | –
N#Cc1sc2nc(-c3cccs3)cc(-c3ccccc3)c2c1N | inactive | –
COc1ccc(OC)c(NC(=O)COC(=O)/C=C/c2c(C)nn(C3CCS(=O)(=O)C3)c2Cl)c1 (stereo not given) | inconclusive: 44.7 µM [inhibitor, partial curve, poor fit] | –
Cc1cccc(-n2cnc3cc(C(=O)N4CCCCC4)ccc32)c1 | inconclusive: 7.08 µM [activator, single point] | –
Nc1nc(N2CCOCC2)nc2ccccc12 | inconclusive: 35.5 µM [activator, single point] | –
CCCC(=O)Nc1cc2c(cc1C(=O)c1ccccc1)OCCO2 | inconclusive: 50.1 µM [activator, single point] | –
Cc1ccc(C(=O)NC(=C(Cl)Cl)S(=O)(=O)c2ccc(C)cc2)cc1 | inactive | –

Structure (SMILES) | Potency | activity change, negative = inhibition
COC(=O)C1=C(C(=O)OC)[C@@H]2N(Cc3ccccc3)c3ccccc3[C@@]23C[C@@H](C(=O)OC)N(S(=O)(=O)c2ccc(OC)cc2)C3=N1 | – | inactive: 3.04% [at 17.5 µM]
Cc1ccc(S(=O)(=O)Oc2ccc(C3C4=C(CCCC4=O)N(CCC(=O)O)C4=C3C(=O)CCC4)cc2Cl)cc1 | inconclusive: 35.5 µM [activator, single point] | –
O=C(Nc1cccc(C(F)(F)F)c1)c1cc2c(s1)-c1ccccc1OC2 | inconclusive: 50.1 µM [activator, single point] | –
CC(C)C(=O)N1CCN(c2ccccc2NC(=S)NC(=O)c2cccs2)CC1 | inactive | –
CC(C)n1c(/C=C/c2ccccc2)nc2ccccc21 | inconclusive: 31.6 µM [activator, single point] | –
CN(C)C(=O)CCSc1nnc(-c2ccncc2)o1 | inconclusive: 28.2 µM [inhibitor, partial curve] | –
Cc1nc2ccc(NC(=O)c3ccc(Cl)c([N+](=O)[O-])c3)cc2s1 | inactive | –
NC(=Nc1ccccc1)NC(=O)c1nc(Cl)c(N)nc1N | inactive | –
COCCn1c(N)c(C#N)c2nc3ccccc3nc21 | inconclusive: 39.8 µM [activator, partial curve] | –
COCCn1c(SCC#N)nnc1-c1ccccc1 | inconclusive: 11.2 µM [activator, single point] | –
Cc1cc(=O)oc2c(CN3CCN(C)CC3)c(O)c(Cl)cc12 | inconclusive: 35.5 µM [activator, partial curve] | –
O=C1CCCC2=C1C(c1ccco1)Nc1ccc3ccccc3c12 (stereo not given) | inconclusive: 28.2 µM [activator, partial curve] | –
COC(=O)C1=CNC=C(C(=O)OC)C1c1ccc(Cl)cc1 | inconclusive: 35.5 µM [activator, partial curve] | –
COc1ccccc1-c1cc(C(=O)NCCCn2ccnc2)no1 | inconclusive: 31.6 µM [activator, single point] | –
COc1nc(-c2ccccc2)ccc1-c1noc(-c2ccccc2F)n1 | inconclusive: 28.2 µM [inhibitor, single point] | –
O=C(c1cc2ccccc2o1)N1CCN(c2ccccc2Cl)CC1 | inconclusive: 7.08 µM [activator, full curve] | –
Cc1cccc(C)c1NC(=O)N1CCN(C2CCCCC2)CC1 | inactive | –
CCOc1cccc(/C(O)=C2/C(=O)C(=O)N(CCOC)C2c2ccncc2)c1 (stereo not given) | inconclusive: 44.7 µM [inhibitor, single point] | –
CSC1=NC(=O)/C(=C\c2cccc3ccccc23)S1 | inconclusive: 35.5 µM [inhibitor, single point] | –
Cc1cccc(OCC(=O)NCc2cc(C)nc3ccccc23)c1 | inconclusive: 28.2 µM [inhibitor, partial curve] | –
CCCc1cc(NCCCN2CCOCC2)n2c(nc3ccccc32)c1C#N | inconclusive: 44.7 µM [activator, single point] | –
CCCCN(CC)CCNC(=O)CCC(=O)Nc1ccc2nc(N3CCN(C)CC3)cc(C)c2c1 | inconclusive: 35.5 µM [activator, partial curve] | –
Cc1ccc(C2CC(c3ccccc3)=NN2c2ccccc2)o1 (stereo not given) | inconclusive: 35.5 µM [activator, partial curve] | –
COc1ccc(/C=N/n2c(=O)[nH]c3c([nH]c4ccc(C)cc43)c2=O)cc1CN1CCOCC1 | inconclusive: 31.6 µM [activator, single point] | –

Structure (SMILES) | Potency | activity change, negative = inhibition
CS(=O)(=O)N(CC(=O)N1CCCC1)Cc1ccc(Cl)cc1 | inactive | –
CC1CC1c1ccc(/C=C(\C#N)C(=O)Nc2cc(Cl)ccc2Cl)o1 (stereo not given) | inconclusive: 50.1 µM [inhibitor, single point] | –
CCNc1ncc2nc(-c3ccc(OC)cc3)c(=O)n(Cc3ccc(F)cc3)c2n1 | inconclusive: 14.1 µM [activator, partial curve] | –
Cc1cc(S(=O)(=O)N(Cc2ccccc2Cl)c2ccc3c(c2)CCC3)ccc1-n1cnnn1 | inactive | –
CC(=O)N1CCN(c2ccc(Nc3ncnc4c3oc3ccccc34)cc2)CC1 | inactive | –
Clc1cccc(-c2csc(Nc3cccnc3)n2)c1 | inconclusive: 0.794 µM [inhibitor, full curve, poor fit] | –
Cc1cc(N2CCCCC2)nc2ccc(NC(=O)CCC(=O)NCCC(C)C)cc12 | inconclusive: 35.5 µM [activator, single point] | –
CCOc1ccc(NC(=O)CSc2nc3cccnc3n2CCOC)cc1 | inactive | –
COC(=O)Nc1nnc(/C=C/c2ccccc2)s1 | inconclusive: 35.5 µM [activator, partial curve] | –
Cc1cc(C(=O)COc2ccc3ccc(=O)oc3c2)c(C)n1C | inconclusive: 31.6 µM [activator, single point] | –
Cc1ccc(SCc2ccc(C(=O)NCc3cccnc3)cc2)cc1 | inconclusive: 50.1 µM [inhibitor, single point] | –
Brc1ccc(Oc2nsnc2N2CCOCC2)cc1 | inconclusive: 50.1 µM [inhibitor, single point] | –
CN1CCc2c(sc(/N=C/c3c[nH]c4ccccc34)c2C(N)=O)C1 | inconclusive: 39.8 µM [activator, single point] | –
C=CCOC(=O)c1ccc(-n2cnc(C)n2)nc1 | inactive | –
CCOC(=O)C1=CN(Cc2ccc(OC)cc2)C=C(C(=O)OCC)C1c1cccs1 | inconclusive: 39.8 µM [activator, single point] | –
Cn1cc(CN2CCC(C(O)c3cccs3)CC2)c(-c2ccccc2F)n1 (stereo not given) | inactive | –
COC(=O)c1ccncc1N | inconclusive: 3.55 µM [activator, partial curve] | –
Cc1ccn2cc(CCNC(=O)CC(C)(C)C)nc2c1 | inactive | –
CNCCNS(=O)(=O)c1cccc2cnccc12 | inconclusive: 89.1 µM [inhibitor, partial curve, poor fit] | –
Cc1c(O)c(=O)c2ccccc2n1C | inconclusive: 50.1 µM [activator, single point] and inconclusive: 5.62 µM [activator, single point] | –
CCCCNC(=O)CCC(=O)Nc1ccc2nc(N3CCCCC3)cc(C)c2c1 | inconclusive: 35.5 µM [activator, single point] | –
CC(=O)Nc1sc2c(c1C(c1ccccn1)N1CCCC1)CCCC2 (stereo not given) | inconclusive: 35.5 µM [inhibitor, single point] | –
